From PubChem BioAssay AID743279 (National Center for Advancing Translational Sciences (NCATS), 2014)
Out of some 360,000 compounds screened, about 17,000 (4.7%) were called active. Inconclusive results, whose numbers are uncertain, are shown with a selection of clear calls. No stated cut-off is given here; in the data, active means activity change below about -50%; inconclusive means mostly about -30% to -49%; inactive means weaker than that.
On the % scale 0 is the no-effect control and ±100 the full control effect.

Assay: qHTS for Inhibitors of Inflammasome Signaling: IL-1-beta AlphaLISA Primary Screen
Conditions: THP-1 LPS/ATP IL-1B secretion, 16 h; at 57.5 µM, active compounds read low
In short: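 Secreted IL-1B measured by AlphaLISA bead assay after 16 h compound exposure of THP-1 cells; compounds (final up to 57.5 uM) added 1 h before LPS (250 ng/mL) and ATP (1.25 mM) stimulation; lower signal means less secretion.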
With `S=C(NCc1ccco1)N1CCN(c2nc(-c3ccccc3)cs2)CC1` the activity change was active: -73%.
For `N#Cc1cc([N+](=O)[O-])ccc1Oc1cccc(/C=N/NC(=O)c2cccc(Cl)c2)c1`, the activity change was inconclusive: -31.2%.
For `COc1ccc(C)cc1C(=O)CCC(=O)N1CCN(c2ccccc2F)CC1`, the activity change was inactive: -12%.
For `CCc1ccc2c(c1)NC(=O)C2(C)Cc1ccccc1OC` (stereo unspecified), the activity change was inactive: 38.6%.
For `C(=C\c1ccccc1)/CN1CCN(C(c2cccc3ccccc23)c2nnnn2Cc2ccccc2)CC1` (stereo unspecified), the activity change was inconclusive: -49.8%.
With `O=S(=O)(c1ccc2c(c1)OCCO2)N1CCN(c2ncnc3sccc23)CC1` the activity change was inactive: -24.8%.
In the case of `CN1C(C(=O)Nc2ccc(OC(F)(F)F)cc2)=CC(c2ccco2)=NS1(=O)=O`, the activity change is reported as inconclusive: -45.7%.
For `COc1cc2c(cc1OC)C(C)N(C(=O)c1sccc1C)CC2` (stereo unspecified), the activity change was inconclusive: -36.7%.
In the case of `O=C(c1cc2cc([N+](=O)[O-])ccc2oc1=O)n1cccn1`, the activity change is reported as inconclusive: -36.3%.
In the case of `CN(CC(=O)Nc1ccccc1Br)C(=O)COc1cccc2c1OC(C)(C)C2`, the activity change is reported as inactive: -11.4%.
For `COC(=O)Cn1cnc2c(cnn2-c2ccc(OC)cc2)c1=O`, the activity change was inconclusive: -32.8%.
In the case of `CC1CCN(C(=O)COC(=O)c2ccc([N+](=O)[O-])o2)CC1`, the activity change is reported as inconclusive: -30.3%.
In the case of `CCOc1ccccc1CN1CCC(n2nccc2NC(=O)CCCc2ccccc2)CC1`, the activity change is reported as inconclusive: -30.5%.
With `S=C(NCCN1CCOCC1)N1CCN(c2cccc(Cl)c2)CC1` the activity change was active: -92.1%.
In the case of `Cc1nc(COc2ccccc2Cl)sc1-c1ccnc(N)n1`, the activity change is reported as active: -61.6%.
For `CCC(C)C(NC(=O)CCC(=O)OCC(=O)[C@@]1(O)CCC2[C@@H]3CCC4=CC(=O)C=C[C@]4(C)C3[C@@H](O)C[C@@]21C)C(=O)O` (stereo partly specified), the activity change was inconclusive: -49.1%.
For `Cc1ccc(S(=O)(=O)c2c(N)n(-c3ccccc3)c3nc4ccccc4nc23)cc1`, the activity change was inconclusive: -49.1%.
With `CCn1c(CCNC(=O)c2ccc(F)cc2)nc2ccccc21` the activity change was inconclusive: -30.4%.
With `CCc1ccc2nc3nc(C)cc(C)c3c(N)c2c1` the activity change was active: -104%.
With `COc1ccc(NC(=O)CSc2nnc(-c3cccs3)n2C)cc1OC` the activity change was inactive: 11.3%.
For `COc1cc(C(O)c2nc(-c3cccc4cccnc34)cs2)ccc1F` (stereo unspecified), the activity change was inactive: 0%.
In the case of `O=C(NCc1cccnc1)c1ccc2c(c1)N(Cc1ccccc1)CCS2`, the activity change is reported as inactive: -21.3%.
With `COc1cc(CNC(=O)Nc2nnc([C@H]3C[C@H](O)[C@@H](CO)O3)s2)cc(OC)c1OC` the activity change was inactive: 22.8%.
For `COC(=O)c1cccc(NC(=O)CCNC(=O)c2ccco2)c1`, the activity change was active: -101%.
In the case of `Cc1cccc(NC(=O)CSC(N)=O)c1C`, the activity change is reported as active: -90.9%.
For `N#C/C(=C1\C(=O)Nc2c(Cl)cc(Cl)cc21)c1nnc2n1CCCCC2`, the activity change was inconclusive: -37.2%.
For `COc1ccccc1C(=O)NCCN1CCCC1`, the activity change was inactive: -7.74%.
With `Cc1cc(C)cc(NC(=O)C2C3C=CC4(O3)C2C(=O)N(CCCN2CCCC2)C4C(=O)NC2CCCC(C)C2C)c1` (stereo unspecified) the activity change was inconclusive: -38.8%.
For `COc1ccc(C(=O)Nc2ccc(C)cc2C(=O)c2ccccc2)cc1`, the activity change was active: -73.5%.
With `COc1ccc2nc(C)cc(N3CCN(c4ccccc4)CC3)c2c1` the activity change was active: -64.6%.
For `COc1ccc(C2=NN(c3ccc(C(=O)O)cc3)C(c3ccc(OC)c(OC)c3)C2)cc1` (stereo unspecified), the activity change was inactive: -16.5%.
For `Cc1ccc(CNc2nc(-c3cccnc3)nc3ccccc23)cc1`, the activity change was inconclusive: -48.8%.
For `Cn1c(C(=O)NCc2ccco2)cc2c(=O)[nH]c3ccccc3c21`, the activity change was inconclusive: -35.5%.
With `Cc1n[nH]c(C)c1S(=O)(=O)N(CC(=O)N1CCc2ccccc21)c1ccc(C(C)C)cc1` the activity change was inconclusive: -31.6%.
For `O=C(COc1coc(CN2CCc3ccccc32)cc1=O)Nc1cccc(F)c1`, the activity change was inactive: 6.81%.
In the case of `Cc1ccc(CC(=O)Nc2cc(C)ccn2)cc1`, the activity change is reported as inconclusive: -46.9%.
In the case of `CCn1c(O)c(/C=C2\C=NN=C2c2ccccc2)sc1=S`, the activity change is reported as inconclusive: -32.4%.
In the case of `Cc1cc(Br)ccc1OCC(=O)NNC(=O)Cc1ccccc1`, the activity change is reported as inconclusive: -32.2%.
In the case of `COc1ccc(C=NN=C2c3ccccc3-c3ccccc32)cc1OC`, the activity change is reported as inactive: -21.6%.
With `CCc1ccccc1NC(=O)CNC(=O)c1cccc(S(=O)(=O)N2CCN(Cc3ccccc3)CC2)c1` the activity change was inconclusive: -30.5%.
For `O=S(=O)(NC1CC1)c1ccc(S(=O)(=O)N2CCCc3ccccc32)cc1`, the activity change was inconclusive: -43.9%.
For `COc1ccc(C2c3[nH]c4ccccc4c3CCN2C(=O)Cc2nonc2C)c(F)c1` (stereo unspecified), the activity change was inconclusive: -38.7%.
In the case of `C=Cn1ccnc1P(=S)(c1ccc2c(c1)c1ccccc1n2CC)c1nccn1C=C`, the activity change is reported as inconclusive: -46.4%.
For `CCN(C[C@H]1N[C@@](Cc2ccccc2)(C(=O)OC)[C@H]2C(=O)N(Cc3ccccc3)C(=O)[C@@H]12)C(=O)Nc1ccc(C(F)(F)F)cc1`, the activity change was inconclusive: -31.9%.
With `Oc1oc(-c2ccco2)nc1C=Nc1ccccc1` the activity change was inconclusive: -40.2%.
For `CCN(c1ccccc1)S(=O)(=O)c1cccc(C(=O)NCC(c2cccs2)N2CCOCC2)c1` (stereo unspecified), the activity change was inconclusive: -35.5%.
With `COc1cc(-c2cccs2)cc(=O)c2c(C)oc(C)c12` the activity change was inconclusive: -32.4%.
With `N#CCCn1nc2c(c1N)CCC2` the activity change was inactive: 28.5%.
In the case of `O=C(CC1C(=O)NCCN1Cc1ccc(-c2ccccc2)cc1)NCc1ccccc1` (stereo unspecified), the activity change is reported as active: -56.9%.
For `COc1ccc(N2CCN(c3nc(Nc4ccc(C)c(F)c4)nc(N4CCCC4)n3)CC2)cc1`, the activity change was inconclusive: -44.3%.
With `CC(=O)Nc1ccc(NC(=O)c2oc3cc(C)c(C)cc3c2C)cc1` the activity change was active: -50.5%.
With `CC(C)(C)c1ccc(N2C(=O)CSC2c2cccnc2)cc1` (stereo unspecified) the activity change was inactive: 13%.
In the case of `Cc1c(CCO)c(=O)[nH]n1S(=O)(=O)c1ccccc1`, the activity change is reported as inconclusive: -30.3%.
With `CC(C)CN(CC(C)C)CC(O)COc1ccc([N+](=O)[O-])cc1` (stereo unspecified) the activity change was inconclusive: -49.9%.
For `CCCCCCCCN1C(=O)[C@H](CC(=O)N2CCSCC2)C[C@@]2(C(=O)OCC)CCCC=C12`, the activity change was inconclusive: -47.9%.
With `CCc1cccc(OCC(=O)Nc2ccc(C)c(S(=O)(=O)N3CCCCCC3)c2)c1` the activity change was inconclusive: -32.3%.
With `Cc1cc(C(=O)C(=O)O)c(C)n1-c1ccc(Cl)c(Cl)c1` the activity change was inconclusive: -34.9%.
In the case of `Cc1ccc(-c2csc(N3C(=N)SCC3=O)n2)cc1`, the activity change is reported as inactive: 22.9%.
With `O=C1[C@H]2[C@@H](c3ccccc3)N[C@]3(CCCN(Cc4ccc(F)cc4)C3=O)[C@H]2C(=O)N1Cc1ccccc1` the activity change was inactive: -22.6%.
In the case of `CC1CCN(C(=O)c2ccc3ccccc3c2)CC1`, the activity change is reported as inactive: 6.97%.
In the case of `CC1=NN(C(N)=S)C(=O)C1N=Nc1c(Cl)cc([N+](=O)[O-])cc1Cl` (stereo unspecified), the activity change is reported as inactive: -19.4%.
With `O=S(=O)(c1cccc(-c2csc(-c3cccnc3)n2)c1)N1CCCCC1` the activity change was inconclusive: -33%.
With `Cc1cc(C)nc(NC(=O)/C=C/c2cccs2)c1` the activity change was inconclusive: -44.1%.
For `CCCCCCCC1CC(CSC(=N)N)OC1=O` (stereo unspecified), the activity change was active: -98.5%.
With `COc1cccc(-c2nc(NC(C)C)c3ccccc3n2)c1O` the activity change was inconclusive: -42.8%.
For `CCc1ccc(CNC(=O)CN2C(=O)COc3ccccc32)cc1`, the activity change was inconclusive: -40.3%.
For `O=[N+]([O-])c1ccc(C(O)CN2CCN(C/C=C/c3ccccc3)CC2)cc1` (stereo unspecified), the activity change was inconclusive: -31.9%.
For `COCCNC(=O)Cn1nc(-c2ccccc2F)ccc1=O`, the activity change was inactive: -0.229%.
For `c1ccc(C2CNCc3c2ccc2ccccc32)cc1` (stereo unspecified), the activity change was inconclusive: -39.6%.
For `CC(C)CCN(C(=S)Nc1cccc(F)c1)C1CCN(C(C)C)CC1`, the activity change was active: -92%.
In the case of `CCc1ccc(OCC(=O)O/N=C(\N)c2ccncc2)cc1`, the activity change is reported as inconclusive: -48.7%.
For `CC(=O)N1CCCC(C(=O)c2ccc(Oc3ccccc3)cc2)C1` (stereo unspecified), the activity change was inconclusive: -33%.
With `COC(=O)[C@@]12C[C@@H](CC(=O)N3CCSCC3)C(=O)N(CCc3ccc(OC)c(OC)c3)C1=CCC(C)(C)C2` the activity change was inconclusive: -38.7%.
In the case of `O=C(NCCN1C(=O)S/C(=C\c2ccc(Cl)c(Cl)c2)C1=O)C1COc2ccccc2O1` (stereo unspecified), the activity change is reported as active: -56.3%.
With `NC(=O)c1ccc(-n2nnnc2SCC(=O)Nc2ccc(F)cc2)cc1` the activity change was inactive: -27.8%.
With `CCc1ccc(C2C(C#N)=C(N)C(C#N)(C#N)C3=CCC(C(C)(C)C)CC32)cc1` (stereo unspecified) the activity change was active: -58.3%.
In the case of `COc1ccccc1C(C[N+](=O)[O-])c1c(N)n(C)c(=O)n(C)c1=O` (stereo unspecified), the activity change is reported as active: -57.8%.
For `Cc1cc(C(=O)C(C)OC(=O)c2ccc(NC(=O)CC#N)cc2)c(C)n1-c1ccc(OC(F)F)cc1` (stereo unspecified), the activity change was inconclusive: -39.8%.
For `Cc1cc(SCC(=O)N2CCC(c3noc4ccc(F)cc34)CC2)nc2ccccc12`, the activity change was inconclusive: -45.5%.
With `COCc1ccc(CN2CCCC(CCC(=O)NCc3cccc(OC)c3)C2)o1` (stereo unspecified) the activity change was inactive: 0.798%.
With `O=C(NC1CC1)c1ccc(Cl)c(S(=O)(=O)N2CCOCC2)c1` the activity change was inactive: 1.16%.
In the case of `O=[N+]([O-])c1ccc2c([N+](=O)[O-])ccc3c2c1CC3`, the activity change is reported as inconclusive: -36.1%.
With `COc1nc(C)ccc1-c1noc(-c2ccccn2)n1` the activity change was inconclusive: -35.9%.
In the case of `COc1ccc(N2C(=O)CC2(/C=C/c2ccccc2OC)C(=O)NC2CCCC2)cc1` (stereo unspecified), the activity change is reported as inconclusive: -39%.
In the case of `CCCN1CCN(C(=O)C2CCN(c3nnc(C)c4c(C)n(-c5ccc(C)cc5)nc34)CC2)CC1`, the activity change is reported as inconclusive: -40.9%.
In the case of `CC1CCCN(CCOCCOc2ccc(Br)cc2Cl)C1` (stereo unspecified), the activity change is reported as inconclusive: -48.3%.
